Source: patent publication US20250304706A1 (Astellas, published 2025)
Numbering of substitutions follows the chain as printed.

B1: BTE-0079 (bispecific antibody)
heavy: QVQLVESGGGVVQPGGSLRLSCAASGFTFSSYGMHWVRQAPGKGLEWVAVIWYDGRNKYYADSVKGRFTISRDNSKNTLYLQMNSLRAEDTAVYYCTRDHSGSGSYYIDYWGQGTLVTVSSASTKGPSVFPLAPSSKSTSGGTAALGCLVKDYFPEPVTVSWNSGALTSGVHTFPAVLQSSGLYSLSSVVTVPSSSLGTQTYICNVNHKPSNTKVDKKVEPKSCDKTHTCPPCPAPEAAGGPSVFLFPPKPKDTLMISRTPEVTCVVVDVSHEDPEVKFNWYVDGVEVHNAKTKPREEQYNSTYRVVSVLTVLHQDWLNGKEYKCKVSNKALAAPIEKTISKAKGQPREPQVYTLPPSRDELTKNQVSLSCAVKGFYPSDIAVEWESNGQPENNYKTTPPVLDSDGSFFLVSKLTVDKSRWQQGNVFSCSVMHEALHNHYTQKSLSLSPGK
light: EIAMTQSPATLSVSPGERATLSCRASQSVSSNLAWYQQKPGQAPRLLIYGASTRATGLPARFSGSGSGTEFTLTISSLQSEDFAVYYCQQYNNFWTFGQGTKVEIKRTVAAPSVFIFPPSDEQLKSGTASVVCLLNNFYPREAKVQWKVDNALQSGNSQESVTEQDSKDSTYSLSSTLTLSKADYEKHKVYACEVTHQGLSSPVTKSFNRGEC
scFv-Fc: EVQLVESGGGLIQPGGSLRLSCAASGFTFNTYAMNWVRQAPGKGLEWVARIRSKYNNYATYYADSVKDRFTISRDDSKSTLYLQMNNLRAEDTAVYYCVRHGNFGDDYVSWFAYWGQGTLVTVSSGKPGSGKPGSGKPGSGKPGSQAVVTQEPSLTVSPGGTVTLTCRSSTGAVTTSNYANWVQQKPGQAPRGLIGGTNKRAPGTPARFSGSLLGDKAALTLSGAQPEDEAEYYCALWYSNLWVFGGGTKVTVL[human IgG1 Fc with C220S L234A L235A P329A T366W (EU numbers) cut from this listing]
notes: anti-TSPAN8/anti-CD3
B2: BTE-0080 (bispecific antibody)
heavy: B1 heavy
light: B1 light
scFv-Fc: B1 scFv-Fc with D107S, A113D
notes: anti-TSPAN8/anti-CD3
B3: BTE-0083 (bispecific antibody)
heavy: B1 heavy
light: B1 light
scFv-Fc: B1 scFv-Fc with N35H, D106N, D107S, T205V
notes: anti-TSPAN8/anti-CD3
B4: BTE-0085 (bispecific antibody)
heavy: B1 heavy
light: B1 light
scFv-Fc: B1 scFv-Fc with N35G, D106N, D107S, T205V
notes: anti-TSPAN8/anti-CD3
B5: BTE-0090 (bispecific antibody)
heavy: B1 heavy
light: B1 light
scFv-Fc: B1 scFv-Fc with D106N, T205V
notes: anti-TSPAN8/anti-CD3
B6: BTE-0091 (bispecific antibody)
heavy: B1 heavy
light: B1 light
scFv-Fc: B1 scFv-Fc with D106N, D107S, A113D, T205V
notes: anti-TSPAN8/anti-CD3
B7: BTE-0092 (bispecific antibody)
heavy: B1 heavy
light: B1 light
scFv-Fc: B1 scFv-Fc with N30S, T31D, Y32H, D106N, D107S, L222I
notes: anti-TSPAN8/anti-CD3
B8: BTE-0094 (bispecific antibody)
heavy: B1 heavy
light: B1 light
scFv-Fc: B1 scFv-Fc with N35H, D106N, D107S, L222I
notes: anti-TSPAN8/anti-CD3
B9: BTE-0095 (bispecific antibody)
heavy: B1 heavy
light: B1 light
scFv-Fc: B1 scFv-Fc with N35A, D106N, D107S, L222I
notes: anti-TSPAN8/anti-CD3
B10: BTE-0096 (bispecific antibody)
heavy: B1 heavy
light: B1 light
scFv-Fc: B1 scFv-Fc with N35G, D106N, D107S, L222I
notes: anti-TSPAN8/anti-CD3
B11: BTE-0097 (bispecific antibody)
heavy: B1 heavy
light: B1 light
scFv-Fc: B1 scFv-Fc with Y55A, D106N, D107S, L222I
notes: anti-TSPAN8/anti-CD3
B12: BTE-0098 (bispecific antibody)
heavy: B1 heavy
light: B1 light
scFv-Fc: B1 scFv-Fc with Y61E, D106N, D107S, L222I
notes: anti-TSPAN8/anti-CD3
B13: BTE-0099 (bispecific antibody)
heavy: B1 heavy
light: B1 light
scFv-Fc: B1 scFv-Fc with Y61S, D106N, D107S, L222I
notes: anti-TSPAN8/anti-CD3
B14: BTE-0100 (bispecific antibody)
heavy: B1 heavy
light: B1 light
scFv-Fc: B1 scFv-Fc with D106N, D107E, L222I
notes: anti-TSPAN8/anti-CD3
B15: BTE-0101 (bispecific antibody)
heavy: B1 heavy
light: B1 light
scFv-Fc: B1 scFv-Fc with D106N, L222I
notes: anti-TSPAN8/anti-CD3
B16: BTE-0102 (bispecific antibody)
heavy: B1 heavy
light: B1 light
scFv-Fc: B1 scFv-Fc with D106N, D107S, A113D, L222I
notes: anti-TSPAN8/anti-CD3
B17: BTE-0105 (bispecific antibody)
heavy: B1 heavy
light: B1 light
scFv-Fc: B1 scFv-Fc with N35H, D106N, D107S, E232D
notes: anti-TSPAN8/anti-CD3
B18: BTE-0106 (bispecific antibody)
heavy: B1 heavy
light: B1 light
scFv-Fc: B1 scFv-Fc with N35A, D106N, D107S, E232D
notes: anti-TSPAN8/anti-CD3
B19: BTE-0107 (bispecific antibody)
heavy: B1 heavy
light: B1 light
scFv-Fc: B1 scFv-Fc with N35G, D106N, D107S, E232D
notes: anti-TSPAN8/anti-CD3
B20: BTE-0111 (bispecific antibody)
heavy: B1 heavy
light: B1 light
scFv-Fc: B1 scFv-Fc with D106N, D107E, E232D
notes: anti-TSPAN8/anti-CD3
B21: BTE-0112 (bispecific antibody)
heavy: B1 heavy
light: B1 light
scFv-Fc: B1 scFv-Fc with D106N, E232D
notes: anti-TSPAN8/anti-CD3
B22: BTE-0113 (bispecific antibody)
heavy: B1 heavy
light: B1 light
scFv-Fc: B1 scFv-Fc with D106N, D107S, A113D, E232D
notes: anti-TSPAN8/anti-CD3
B23: BTE-0116 (bispecific antibody)
heavy: B1 heavy
light: B1 light
scFv-Fc: B1 scFv-Fc with N35H, D106N, D107S, L242H
notes: anti-TSPAN8/anti-CD3
B24: BTE-0118 (bispecific antibody)
heavy: B1 heavy
light: B1 light
scFv-Fc: B1 scFv-Fc with N35G, D106N, D107S, L242H
notes: anti-TSPAN8/anti-CD3
B25: BTE-0124 (bispecific antibody)
heavy: B1 heavy
light: B1 light
scFv-Fc: B1 scFv-Fc with D106N, D107S, A113D, L242H
notes: anti-TSPAN8/anti-CD3
B26: BTE-0127 (bispecific antibody)
heavy: B1 heavy
light: B1 light
scFv-Fc: B1 scFv-Fc with N35H, D106N, D107S
B27: BTE-0128 (bispecific antibody)
heavy: B1 heavy
light: B1 light
scFv-Fc: B1 scFv-Fc with N35A, D106N, D107S
B28: BTE-0129 (bispecific antibody)
heavy: B1 heavy
light: B1 light
scFv-Fc: B1 scFv-Fc with N35G, D106N, D107S
B29: BTE-0134 (bispecific antibody)
heavy: B1 heavy
light: B1 light
scFv-Fc: B1 scFv-Fc with D106N
notes: anti-TSPAN8/anti-CD3
B30: BTE-0135 (bispecific antibody)
heavy: B1 heavy
light: B1 light
scFv-Fc: B1 scFv-Fc with D106N, D107S, A113D
notes: anti-TSPAN8/anti-CD3
B31: BTE-0093 (bispecific antibody)
chain 1: B1 heavy
chain 2: B1 light
chain 3: B1 scFv-Fc with N35S, D106N, D107S, L222I
B32: BTE-0103 (bispecific antibody)
chain 1: B1 heavy
chain 2: B1 light
chain 3: B1 scFv-Fc with N30S, T31D, Y32H, D106N, D107S, E232D

The binders below were run against T1, CD3εδ complex protein (human; alpaca, UniProt P07766 23-126; P04234 22-105) (assay: ELISA, CD3 complex immobilized).
Sequence of UniProt P07766 (P07766 23-126 limits assumed, stated change not applied, form in doubt, chain 1 of 2): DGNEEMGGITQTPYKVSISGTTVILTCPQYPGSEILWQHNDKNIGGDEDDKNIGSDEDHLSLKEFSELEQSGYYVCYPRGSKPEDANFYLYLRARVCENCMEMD
Sequence of UniProt P07766 (P04234 22-105 limits assumed, stated change not applied, form in doubt, chain 2 of 2, further chain): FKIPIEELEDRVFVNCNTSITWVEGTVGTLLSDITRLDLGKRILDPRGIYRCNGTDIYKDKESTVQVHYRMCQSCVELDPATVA
T1 construct: they are not part of the secreted protein; also called human CD3; CD386 complex protein
Procedure: Binding activities of the anti-TSPAN8/anti-CD3 bispecific antibodies BTE-0001 to BTE-0067 to CD3 were evaluated by the ELISA. ELISA was performed according to a conventional method. The […] complex protein obtained in Example 1-3 was immobilized on a plate. BTE-0001 to BTE-0067 were used as the test antibodies. As a secondary antibody, Goat anti-Human IgG Fc, Multi-Species SP ads-HRP (2014-05, available from SouthernBiotech) was used. TMB+Substrate-Chromogen (S1599, available from Dako) was used as the detection reagent. Infinite M200pro (available from Tecan) was used to measure the absorbance. The EC50 values were calculated using variable slope model (four parameters) in GraphPad Prism with the maximum value in the same plate fixed at the top and the minimum value in the blank in the same plate fixed at the bottom. Since BTE-0001 was always measured in each plate as a control, only the EC50 value of BTE-0001 was expressed as the average value of a plurality of plates.
Binding activities of the 66 anti-TSPAN8/anti-CD3 bispecific antibodies to CD3 were evaluated by the ELISA described in Example 1-4.
B1 gave an EC50 of 0.22 µg/mL. B2 showed an EC50 of 1.18 µg/mL. Binder B3 has an EC50 of 0.165 µg/mL. For B4, the EC50 was 0.729 µg/mL. Work on B5 yielded an EC50 of 0.12 µg/mL. In the case of B6, the EC50 is reported as 0.623 µg/mL. B7 was tested, and the EC50 was 0.187 µg/mL. In the case of B8, the EC50 is reported as 0.297 µg/mL. B9 gave an EC50 of 0.41 µg/mL. B10 was tested, and the EC50 was 0.802 µg/mL. B11 gave an EC50 of 0.0308 µg/mL. B12 was tested, and the EC50 was 0.438 µg/mL. In the case of B13, the EC50 is reported as 0.0682 µg/mL. Work on B14 yielded an EC50 of 0.247 µg/mL. With B15 the EC50 was 0.113 µg/mL. B16 gave an EC50 of 0.77 µg/mL. In the case of B17, the EC50 is reported as 0.201 µg/mL. In the case of B18, the EC50 is reported as 0.327 µg/mL. Work on B19 yielded an EC50 of 0.594 µg/mL. B20 was tested, and the EC50 was 0.066 µg/mL. B21 showed an EC50 of 0.0433 µg/mL. B22 showed an EC50 of 0.363 µg/mL. B23 gave an EC50 of 0.187 µg/mL. Binder B24 has an EC50 of 0.709 µg/mL. For B25, the EC50 was 0.378 µg/mL. B26 was tested, and the EC50 was 0.122 µg/mL. B27 gave an EC50 of 0.174 µg/mL. Binder B28 has an EC50 of 0.469 µg/mL. B29 was tested, and the EC50 was 0.046 µg/mL. With B30 the EC50 was 0.204 µg/mL. Binder B31 has an EC50 of 0.0903 µg/mL. B32 was tested, and the EC50 was 0.18 µg/mL.
